Drawing on patent US8067379B2, “Sulfur compounds as inhibitors of hepatitis C virus NS3 serine protease” (Schering Corporation, priority 2004, dated 2011), this text covers Ki for 31 molecules.

Each structure is given as a SMILES string. Bounds are passed on as bounds.

The first experiment has as its target Recombinant heterodimeric HCV NS3/NS4A protease (strain 1a) (Hepatitis C virus genotype 1a, UniProt P27958). Briefly: Spectrophotometric assay for HCV serine protease inhibitory activity (chromogenic ester substrates). It is filed as biochemical. The settings on record: Table 3, sulfide compounds; HCV serine protease; read-out: Ki* range.
As a reminder, the Ki is the equilibrium dissociation constant of an inhibitor or competing ligand from its target. As for `CC(C)(C)SCCC1(NC(=O)N[C@H](C(=O)N2C[C@H]3[C@@H]([C@H]2C(=O)NC(CC2CC2)C(=O)C(N)=O)C3(C)C)C(C)(C)C)CCCCC1` (stereo partly shown) [Compound 130], the Ki was 0.075 to 0.25 µM.

The same experiment, now with this note: Table 3, sulfone compounds; HCV serine protease; read-out: Ki* range.
Consider `C=CCNC(=O)C(=O)C(CC1CC1)NC(=O)[C@@H]1[C@@H]2[C@H](CN1C(=O)[C@@H](NC(=O)N[C@@](C)(CC(C)C)CS(=O)(=O)C(C)(C)C)C(C)(C)C)C2(C)C` (stereo partly shown) [Compound 288], for which the Ki was > 0.25 µM.

In the case of `C#CCCC(NC(=O)[C@@H]1[C@@H]2[C@H](CN1C(=O)[C@@H](NC(=O)NC1(CS(=O)(=O)c3ccccn3)CCCCC1)C(C)(C)C)C2(C)C)C(=O)C(=O)NCC=C` (stereo partly shown) [Compound 265], the Ki is < 0.075 µM.

Take `C=CCNC(=O)C(=O)C(NC(=O)[C@@H]1[C@@H]2[C@H](CN1C(=O)[C@@H](NC(=O)NC1(CS(=O)(=O)C(C)(C)C)CCCCC1)C(C)(C)C)C2(C)C)C1CCC1` (stereo partly shown) [Compound 295]: the Ki was 0.075 to 0.25 µM.

Consider `C#CCCC(NC(=O)[C@@H]1[C@@H]2[C@H](CN1C(=O)[C@@H](NC(=O)NC1(CS(=O)(=O)Cc3ccccc3)CCCCC1)C(C)(C)C)C2(C)C)C(=O)C(=O)NCC=C` (stereo partly shown) [Compound 191], for which the Ki was < 0.075 µM.

With `C=CCNC(=O)C(=O)C(CCC)NC(=O)[C@@H]1[C@@H]2[C@H](CN1C(=O)[C@@H](NC(=O)NC1(CS(=O)(=O)CC)CCCCC1)C(C)(C)C)C2(C)C` (stereo partly shown) [Compound 227], the Ki is < 0.075 µM.

Still in this experiment, the particulars now being: Table 3A; class symbols; read-out: Ki* Range.
On to `CC1([C@H](NC(=O)NC2([C@@H]3CCCS3(=O)=O)CCCCC2)C(=O)N2C[C@H]3[C@@H]([C@H]2C(=O)N[C@@H](CCC2CC2)C(=O)C(=O)NCCF)C3(C)C)CCCCC1` [Compound 883-ej], for which the Ki is < 0.075 µM.

Regarding `CCCCC(NC(=O)[C@@H]1[C@@H]2[C@H](CN1C(=O)[C@@H](NC(=O)NC1(CS(=O)(=O)C(C)(C)C)CCCCC1)C(C)(C)C)C2(Cl)Cl)C(=O)C(=O)NC1CC1` (stereo partly shown) [Compound 584], the inhibition constant Ki was < 0.075 µM.

For `C=C(F)CNC(=O)C(=O)C(CCC)NC(=O)[C@@H]1[C@@H]2[C@H](CN1C(=O)[C@@H](NC(=O)NC1(CS(=O)(=O)C(C)(C)C)CCCCC1)C1(C)CCCCC1)C2(C)C` (stereo partly shown) [Compound 416], the Ki was < 0.075 µM.

As for `CC1([C@H](NC(=O)NC2(CS(C)(=O)=O)CCCCC2)C(=O)N2C[C@H]3[C@@H]([C@H]2C(=O)NC(CC2CC2)C(=O)C(=O)NC2CC2)C3(C)C)CCCCC1` (stereo partly shown) [Compound 491], the Ki is < 0.075 µM.

Turning to `CCCNC(=O)C(=O)[C@H](CCC)NC(=O)[C@@H]1[C@@H]2[C@H](CN1C(=O)[C@@H](NC(=O)NC1([C@@H]3CCCS3(=O)=O)CCCCC1)C1(C)CCCCC1)C2(C)C` [Compound 883-ai], the Ki was < 0.075 µM.

As for `C=CCNC(=O)C(=O)C(CC(C)C)NC(=O)[C@@H]1[C@@H]2[C@H](CN1C(=O)[C@@H](NC(=O)NC1(CS(=O)(=O)C(C)(C)C)CCCCC1)C1(C)CCCCC1)C2(C)C` (stereo partly shown) [Compound 575], the Ki was in the range of 0.075 to 0.25 µM.

For the molecule `CCNC(=O)C(=O)[C@H](CCC1CC1)NC(=O)[C@@H]1[C@@H]2[C@H](CN1C(=O)[C@@H](NC(=O)NC1(CS(=O)(=O)C(C)(C)C)CCCCC1)C(C)(C)C)C2(C)C` [Compound 883-az], the Ki is < 0.075 µM.

`CCC[C@H](NC(=O)[C@@H]1[C@@H]2[C@H](CN1C(=O)[C@@H](NC(=O)NC1(C3CCCCS3(=O)=O)CCCCC1)C(C)(C)C)C2(C)C)C(=O)C(=O)NC1CC1` (stereo partly shown) [Compound 829]: the Ki is < 0.075 µM.

Take `CCCC[C@H](NC(=O)[C@@H]1[C@@H]2[C@H](CN1C(=O)[C@@H](NC(=O)NC1(CS(=O)(=O)C(C)(C)C)CCCCC1)C(C)(C)C)C2(Cl)Cl)C(=O)C(=O)NC1CC1` [Compound 759]: the Ki is < 0.075 µM.

Regarding `C=C(F)CNC(=O)C(=O)C(CC1CC1)NC(=O)[C@@H]1[C@@H]2[C@H](CN1C(=O)[C@@H](NC(=O)NC1(CS(=O)(=O)C(C)(C)C)CCCCC1)C1(C)CCCCC1)C2(C)C` (stereo partly shown) [Compound 421], the Ki is < 0.075 µM.

`C=CCNC(=O)C(=O)C(CCCC)NC(=O)[C@@H]1[C@@H]2[C@H](CN1C(=O)[C@@H](NC(=O)NC1(CS(=O)(=O)C(C)(C)C)CCCCC1)C1CCC(F)(F)CC1)C2(C)C` (stereo partly shown) [Compound 450]: the inhibition constant Ki is < 0.075 µM.

As to `CCC[C@H](NC(=O)[C@@H]1[C@@H]2[C@H](CN1C(=O)[C@@H](NC(=O)NC1(CS(=O)(=O)C3CCCC3)CCCCC1)C(C)(C)C)C2(C)C)C(=O)C(=O)NC1CC1` [Compound 704], the inhibitory constant (Ki) is < 0.075 µM.

As for `CCCC[C@H](NC(=O)[C@@H]1[C@@H]2[C@H](CN1C(=O)[C@@H](NC(=O)NC1([C@H]3CCCS3(=O)=O)CCCCC1)C1(C)CCCCC1)C2(C)C)C(=O)C(=O)NCC` [Compound 883-dn], the Ki was < 0.075 µM.

With `C=CCNC(=O)C(=O)[C@H](CC1CC1)NC(=O)[C@@H]1[C@@H]2[C@H](CN1C(=O)[C@@H](NC(=O)NC1(CS(=O)(=O)C3CCCC3)CCCCC1)C1CCCCC1)C2(C)C` [Compound 733], the Ki was < 0.075 µM.

With `CC1([C@H](NC(=O)NC2(CS(=O)(=O)C(C)(C)C)CCCCC2)C(=O)N2C[C@H]3[C@@H]([C@H]2C(=O)NC(CCCC(F)F)C(=O)C(=O)NC2CC2)C3(C)C)CCCCC1` (stereo partly shown) [Compound 459], the Ki is < 0.075 µM.

Take `C=CCNC(=O)C(=O)[C@H](CCC1CC1)NC(=O)[C@@H]1[C@@H]2[C@H](CN1C(=O)[C@@H](NC(=O)NC1([C@@H]3CCCS3(=O)=O)CCCCC1)C1(C)CCCCC1)C2(C)C` [Compound 872]: the Ki is < 0.075 µM.

For `CC(C)C[C@](C)(CS(=O)(=O)C(C)(C)C)NC(=O)N[C@H](C(=O)N1C[C@H]2[C@@H]([C@H]1C(=O)NC(CCC1CC1)C(=O)C(=O)NC1CC1)C2(C)C)C1(C)CCCCC1` (stereo partly shown) [Compound 570], the Ki is < 0.075 µM.

Regarding `CCCNC(=O)C(=O)C(CC1CC1)NC(=O)[C@@H]1[C@@H]2[C@H](CN1C(=O)[C@@H](NC(=O)NC1(C3CCCS3(=O)=O)CCCCC1)C(C)(C)C)C2(C)C` (stereo partly shown) [Compound 633], the Ki was < 0.075 µM.

Turning to `C=CCNC(=O)C(=O)C(CC1CC1)NC(=O)[C@@H]1CC2(CN1C(=O)[C@@H](NC(=O)NC1(CS(=O)(=O)C(C)(C)C)CCCCC1)C(C)(C)C)SCCS2` (stereo partly shown) [Compound 634], the Ki is < 0.075 µM.

`C=CCNC(=O)C(=O)C(CCC)NC(=O)[C@@H]1[C@@H]2[C@H](CN1C(=O)[C@@H](NC(=O)NC1(CS(=O)(=O)C(C)(C)C)CCCCC1)C1(C)CCCCC1)C2(C)C` (stereo partly shown) [Compound 434]: the Ki was < 0.075 µM.

Take `CC(C)(C)[C@H](NC(=O)NC1(C2CCCS2(=O)=O)CCCCC1)C(=O)N1C[C@H]2[C@@H]([C@H]1C(=O)NC(CCC1CC1)C(=O)C(=O)NC1CC1)C2(C)C` (stereo partly shown) [Compound 681]: the inhibition constant Ki is < 0.075 µM.

Turning to `C=CCNC(=O)C(=O)C(CC1CC1)NC(=O)[C@@H]1[C@@H]2[C@H](CN1C(=O)[C@@H](NC(=O)NC1(CS(=O)(=O)CCC(C)C)CCCCC1)C1(C)CCCCC1)C2(C)C` (stereo partly shown) [Compound 524], the Ki is < 0.075 µM.

For `CC(C)(C)[C@H](NC(=O)NC1(C2CCCS2(=O)=O)CCCCC1)C(=O)N1C[C@H]2[C@@H]([C@H]1C(=O)N[C@@H](CCC1CC1)C(=O)C(=O)NC1CC1)C2(Cl)Cl` (stereo partly shown) [Compound 854], the Ki is < 0.075 µM.

As for `CCCC[C@H](NC(=O)[C@@H]1[C@@H]2[C@H](CN1C(=O)[C@@H](NC(=O)NC1(C3OCCS3(=O)=O)CCCCC1)C(C)(C)C)C2(Cl)Cl)C(=O)C(=O)NCC` (stereo partly shown) [Compound 883-de], the Ki was < 0.075 µM.

Still in this experiment, the particulars now being: Table 4A; read-out: Ki* Range.
Take `C#CCCC(NC(=O)[C@@H]1[C@@H]2[C@H](CN1C(=O)[C@@H](NC(=O)N[C@H]([C@H]1CCN(Cc3ccc(OC)cc3)S1(=O)=O)C(C)(C)C)C1(C)CCCCC1)C2(C)C)C(=O)C(=O)NCC=C` (stereo partly shown) [Compound 1116]: the Ki was > 0.25 µM.
